The campaign covered roughly 220,000 compounds. About 16,000 (7.3%) were called active. The inconclusive results got no clear call from the source; some entries with a clear call stand among them for comparison. Calls follow the shape of the dose curve; as a rule, active = well fitted inhibition curve with a large enough effect (not every such curve was filed as active); inconclusive = small, poorly fitted or top-dose-only effect, or another doubt; inactive = no such curve, though single readings can be large or run the other way. No potency is given beside an inconclusive call; the fits are too rough.
molecular target: Aldehyde dehydrogenase 1A1 (Homo sapiens) (UniProt P00352); assay: qHTS Assay for Inhibitors of Aldehyde Dehydrogenase 1 (ALDH1A1); settings: Purified ALDH1A1, NADH fluorescence, propionaldehyde substrate; series mostly up to 75.3 µM;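 as to activity, negative = inhibition: plate controls were no enzyme wells and a reference inhibitor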
Potency is read from the fitted curve at half-maximal effect; tags tell the direction and shape of the fitted curve.

UniProt P00352, sequence (P00352 whole entry, looked up): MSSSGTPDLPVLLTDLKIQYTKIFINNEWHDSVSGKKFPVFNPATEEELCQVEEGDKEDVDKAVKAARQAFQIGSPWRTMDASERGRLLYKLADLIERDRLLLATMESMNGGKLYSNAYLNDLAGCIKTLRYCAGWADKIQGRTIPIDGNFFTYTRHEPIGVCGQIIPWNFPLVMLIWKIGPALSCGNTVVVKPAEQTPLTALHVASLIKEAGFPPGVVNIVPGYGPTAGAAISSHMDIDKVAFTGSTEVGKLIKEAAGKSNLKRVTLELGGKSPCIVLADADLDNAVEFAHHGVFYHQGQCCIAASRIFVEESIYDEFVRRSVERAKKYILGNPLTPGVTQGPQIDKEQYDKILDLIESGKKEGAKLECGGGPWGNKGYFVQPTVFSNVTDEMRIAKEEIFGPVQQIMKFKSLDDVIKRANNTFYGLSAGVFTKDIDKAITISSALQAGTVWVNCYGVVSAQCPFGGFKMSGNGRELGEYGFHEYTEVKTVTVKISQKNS

Row | SMILES | Potency | activity, negative = inhibition
1 | COc1ccc(S(=O)(=O)Cc2ccc(C(=O)NC3CC3)o2)cc1 | inconclusive [inhibitor, single point] | –
2 | COc1ccc(OCc2nc(N)nc(Nc3ccccc3)n2)cc1 | inconclusive [inhibitor, single point] | –
3 | CCCOc1ccc(N2CC(C(=O)NC(C)C)CC2=O)cc1 (centres undefined) | inactive | –
4 | CCS(=O)(=O)c1nc(S(=O)(=O)c2ccc(Cl)cc2)c(NCCOC)s1 | active: 4.47 µM | –
5 | Cc1cc(C)c2c(c1)/C(=N/NS(=O)(=O)c1ccc(Br)cc1)CCC2 | inconclusive [inhibitor, single point] | –
6 | C/C(Cl)=C\Cn1c(O)c(N=NC(N)=S)c2cc(Br)ccc21 | active: 0.447 µM | –
7 | Cc1ccc2nc3c(cc2c1)c(NC(=O)C1CCCO1)nn3CC(C)C (centres undefined) | inconclusive [inhibitor, partial curve] | –
8 | C[C@@H]1C=C[C@](Cc2ccccc2)(C(=O)NCCN2CCOCC2)N1C(=O)c1ccccc1 | inactive | –
9 | CCC1(CC)NC(=O)N(CC(=O)Nc2ccc(S(=O)(=O)N3CCOCC3)cc2)C1=O | inconclusive [inhibitor, partial curve, poor fit] | –
10 | CCCCS(=O)(=O)c1sc2nc(C)cc(C)c2c1N | inactive | –
11 | Cc1oc(-c2cccc3ccccc23)nc1CN1CCC[C@H]1CO | inactive | –
12 | COCCOC(=O)c1c(NC(=O)CNCc2ccco2)sc(C(N)=O)c1C | active: 10 µM | –
13 | O=C(CSc1ccc(F)cc1)N1CCC(c2nc3ccccc3s2)CC1 | active: 7.08 µM | –
14 | CCOC(=O)C1CCCN(c2c(NCCCN(CC)c3cccc(C)c3)c(=O)c2=O)C1 (centres undefined) | inactive | –
15 | CN(C)Cc1c(O)ccc2c(-c3ccccc3)cc(=O)oc12 | inconclusive [inhibitor, single point] | –
16 | CCN1C(=O)/C(=C/C=C2/SCCN2C)SC1=S | inconclusive [inhibitor, partial curve] | –
17 | O=C(O)CSCC(=O)c1ccccc1 | active: 14.1 µM | –
18 | CC[C@@H]1OC(=O)[C@H](C)[C@H](O[C@@H]2C[C@](C)(OC)[C@H](O)[C@H](C)O2)[C@H](C)[C@H](O[C@@H]2O[C@@H](C)C[C@@H](N(C)C)[C@@H]2O)[C@](C)(O)C[C@H](C)[C@@H]2N[C@H](COCCOC)O[C@H]([C@@H]2C)[C@]1(C)O | inactive | –
19 | COc1ccc(-c2cc(=O)c3ccccc3o2)cc1OC | inconclusive [inhibitor, partial curve] | –
20 | O=[N+]([O-])c1ccc2nc(-[n+]3c(-c4ccccc4)cc(-c4ccccc4)cc3-c3ccccc3)[nH]c2c1 | inconclusive [inhibitor, single point] | –
21 | CCNC(=O)/C(C#N)=C/c1c(N2CCN(Cc3ccc4c(c3)OCO4)CC2)nc2c(C)cccn2c1=O | inconclusive [inhibitor, partial curve] | –
22 | O=C(NCc1ccco1)/C(=C/C=C\c1ccccc1)NC(=O)c1ccc(Br)o1 | inconclusive [inhibitor, single point] | –
23 | CCN1CCN(c2cc3c(nn2)Oc2ccccc2N3C)CC1 | inconclusive [inhibitor, partial curve] | –

Row | SMILES | Potency | activity, negative = inhibition
24 | CC(C)n1nnnc1-c1ccc(Cl)cc1 | inactive | –
25 | Cc1sc(N2C(=O)C3C4C=CC(C4)C3C2=O)c(C#N)c1C (centres undefined) | inconclusive [inhibitor, partial curve] | –
26 | Cc1cc(C)c2c(N)c3cccc(C)c3nc2n1 | inconclusive [inhibitor, partial curve] | –
27 | Cn1c([N+](=O)[O-])cnc1N1CCN(c2nncs2)C1=O | inactive | –
28 | O=C(O)CN(c1ccccn1)S(=O)(=O)c1ccccc1 | inconclusive [inhibitor, single point] | –
29 | O=C(Cc1ccccc1)NCC1CCCO1 (centres undefined) | inactive | –
30 | N#CCC(=O)N/N=C1\CCCCC1C1CCCCC1 (centres undefined) | inconclusive [inhibitor, single point] | –
31 | Cc1nonc1CN(C)C(=O)CC1C(=O)NCCN1Cc1c(F)cccc1Cl (centres undefined) | inactive | –
32 | CC(=O)OCC(=O)[C@H]1CC[C@H]2[C@@H]3CCC4=CC(=O)CC[C@]4(C)[C@H]3CC[C@]12C | inconclusive [inhibitor, single point] | –
33 | COc1ccccc1C(=O)Nc1nnc(-c2ccco2)s1 | inconclusive [inhibitor, partial curve] | –
34 | Cc1ccccc1NC(=O)Cn1nnc2ccccc21 | inactive | –
35 | CCn1c(SCC(=O)N2CCCc3ccccc32)nnc1-c1c[nH]c2ccccc12 | inconclusive [inhibitor, single point] | –
36 | Cc1ccc(CN2CCN(Cc3ccccc3C(F)(F)F)CC2)cc1 | inactive | –
37 | Cc1c(C#N)sc2nc(-c3ccccc3)nc(N3CCCC3)c12 | inconclusive [inhibitor, partial curve] | –
38 | O=C1c2ccccc2-c2nc3ccccc3nc21 | active: 12.6 µM | –
39 | COc1ccc(NC(=O)CCCCC#Cc2ccccc2)cc1 | inconclusive [inhibitor, partial curve] | –
40 | O=C(Nc1ccccc1)c1ccc(N2CCN(c3ccccc3)CC2)c(S(=O)(=O)N2CCOCC2)c1 | inconclusive [inhibitor, single point] | –
41 | Cc1nc2sc(C#N)c(N)c2c2c1CCCC2 | inconclusive [inhibitor, partial curve] | –
42 | COc1ccc2c(C)cc(=O)oc2c1C | inconclusive [inhibitor, partial curve] | –
43 | CC1=NN(C(=O)CSCc2ccccc2)C(O)(c2ccccc2)C1 (centres undefined) | inconclusive [inhibitor, single point] | –
44 | Cc1ccsc1/C=C/C1=Cc2c(sc(NC(=O)CSc3n[nH]c(N)n3)c2C#N)C(C)(C)C1 | inconclusive [inhibitor, single point] | –
45 | COc1ccc(-n2c(O)c(/C=N/n3cnnc3)c3ccccc3c2=O)cc1 | inconclusive [inhibitor, single point] | –
46 | CN(C)S(=O)(=O)c1ccc(C(=O)N2CCN=C2SCc2ccccc2)cc1 | inconclusive [inhibitor, partial curve] | –

Row | SMILES | Potency | activity, negative = inhibition
47 | CCN1CCCc2cc(CN(CCN3CCOCC3)C(=S)Nc3cccc(C)c3)ccc21 | active: 7.94 µM | –
48 | CCNC(=O)C/C(C)=N/NC(=O)C12CC3CC(CC(C3)C1)C2 | active: 3.98 µM | –
49 | O=C(COC(=O)CSc1ccc2ccccc2c1)NC1CC1 | inactive | –
50 | c1ccc(-c2ncc(-c3ccn[nH]3)s2)cc1 | inconclusive [inhibitor, partial curve] | –
51 | Cn1c(SCc2ccc(C(=O)Nc3nccs3)cc2)nnc1-c1ccccc1 | inconclusive [inhibitor, single point] | –
52 | O=C(CSc1oc(-c2ccccc2)nc1S(=O)(=O)c1ccc(F)cc1)NCC1CCCO1 (centres undefined) | inconclusive [inhibitor, single point] | –
53 | Cc1cc(Cl)ccc1OCc1cn2cccnc2n1 | inconclusive [inhibitor, single point] | –
54 | N#Cc1c(N2CCCC(O)C2)nc(N)c2c(N)nc3c(c12)CC(=O)N3C12CC3CC(CC(C3)C1)C2 (centres undefined) | inconclusive [inhibitor, single point] | –
55 | Cn1c(Cn2c(=O)sc3ccccc32)nnc1SCc1ccccn1 | active: 2 µM | –
56 | O=C(CSc1nc(-c2ccccc2)cs1)NCCN1C(=O)CSC1=O | inactive | –
57 | CCN(CC)S(=O)(=O)c1ccc(N2CCOCC2)c(NC(=O)Cc2cccc3ccccc23)c1 | inconclusive [inhibitor, single point] | –
58 | Cc1nn(-c2ccccc2)c(Cl)c1C(=O)Nc1c(C)n(C)n(-c2ccccc2)c1=O | inconclusive [inhibitor, partial curve, poor fit] | –
59 | COc1ccc(NS(=O)(=O)c2cccc(-c3nnc4n3CCCCC4)c2)cc1 | inactive | –
60 | COc1ccc(S(=O)(=O)N(C)C)cc1NC(=O)COC(=O)CC1CCCC1 | inconclusive [inhibitor, partial curve] | –
61 | C=C(CC(=O)OC)C[C@]1(CC(=O)OC)CC2(CC=C(C)C)C(=O)C(C(=O)c3ccccc3)=C(OC(=O)c3ccc(Br)cc3)C(CC=C(C)C)(C1)C2=O (some centres undefined) | – | inactive: 2.25% [at 13.5 µM]
62 | COCCN(C(=O)C(C)C)c1nnc(-c2ccc(C(C)(C)C)cc2)s1 | inconclusive [inhibitor, partial curve, poor fit] | –
63 | CC(NCC1COc2ccccc2O1)C(=O)NCc1ccccc1 (centres undefined) | inconclusive [inhibitor, single point] | –
64 | O=C(Oc1ccc(NC2=C(Cl)C(=O)c3ccccc3C2=O)cc1)c1ccc([N+](=O)[O-])cc1 | inactive | –
65 | CCCCCCc1cc2cc(C(=O)NCc3ccccc3)c(=N)oc2cc1O | inconclusive [inhibitor, single point] | –
66 | C/C(CC(=O)Nc1ccc(Cl)cc1Cl)=N\NC(N)=S | inconclusive [inhibitor, full curve, poor fit] | –
67 | O=C(NCCN1CCN(Cc2ccccc2)CC1)c1cc2c(=O)[nH]c3ccccc3c2s1 | inconclusive [inhibitor, single point] | –
68 | COc1cc(O)ccc1C(C)=O | inactive | –
69 | O=C(c1ccc(Br)cc1)N(Cc1nc2ccccc2c(=O)[nH]1)C1CCCC1 | inconclusive [inhibitor, single point] | –

Reference: PubChem BioAssay AID1030 (National Center for Advancing Translational Sciences (NCATS), 2008)
